Whole data set: some 33,000 sequences, median “E-score (-0.5 to 0.5)” near -0.021, cut for the highest 2% near 0.32. The list shows a part of the results.
Target: T1, Zap1 (UniProt P47043)
T1 sequence: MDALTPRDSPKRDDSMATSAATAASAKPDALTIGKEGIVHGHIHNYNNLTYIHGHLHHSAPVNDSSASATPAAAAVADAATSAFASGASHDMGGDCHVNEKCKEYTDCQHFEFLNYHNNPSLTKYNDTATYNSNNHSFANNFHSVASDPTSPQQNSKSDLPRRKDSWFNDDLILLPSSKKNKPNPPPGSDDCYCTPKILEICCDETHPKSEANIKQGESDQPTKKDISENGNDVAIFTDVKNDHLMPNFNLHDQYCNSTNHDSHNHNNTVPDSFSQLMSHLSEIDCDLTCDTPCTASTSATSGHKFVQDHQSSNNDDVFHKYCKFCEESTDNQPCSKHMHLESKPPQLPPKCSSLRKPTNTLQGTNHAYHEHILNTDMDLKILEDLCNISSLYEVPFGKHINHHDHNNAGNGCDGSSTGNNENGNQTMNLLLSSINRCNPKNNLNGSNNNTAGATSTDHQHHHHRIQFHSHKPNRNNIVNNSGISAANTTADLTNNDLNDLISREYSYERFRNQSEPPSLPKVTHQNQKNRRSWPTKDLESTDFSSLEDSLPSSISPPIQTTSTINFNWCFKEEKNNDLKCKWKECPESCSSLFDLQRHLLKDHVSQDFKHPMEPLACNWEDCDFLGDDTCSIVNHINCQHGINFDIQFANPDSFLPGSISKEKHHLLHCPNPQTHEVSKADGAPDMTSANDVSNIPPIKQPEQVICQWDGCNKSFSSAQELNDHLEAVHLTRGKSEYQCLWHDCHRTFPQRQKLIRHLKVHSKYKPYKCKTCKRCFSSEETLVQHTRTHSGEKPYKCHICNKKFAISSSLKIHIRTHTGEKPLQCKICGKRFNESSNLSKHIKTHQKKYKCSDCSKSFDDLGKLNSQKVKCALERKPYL
Assay: PBM E-score (8-mer binding enrichment) (E-score (-0.5 to 0.5)); higher = stronger / more preferred TF binding; most listed sequences are background and not binding sites
Details: protein concentration: 200 nM; construct: GST-full length
Outline: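 Each ungapped eight-base word and its reverse complement, pooled, received an E-score from the Universal PBM Analysis Suite. Underlying scans, normalised with masliner, recorded fluorescent anti-GST bound to GST-tagged yeast transcription factors. These were applied at about 100-200 nM to universal all-10-mer Agilent arrays double-stranded by primer extension.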

| Sequence | PBM E-score |
| --- | --- |
| AGCGACCC | 0.0346 |
| AGGGGATC | -0.242 |
| CGTAATCC | 0.107 |
| GAGAGACA | -0.0771 |
| ACTGTACC | 0.0256 |
| AGCCGCAG | -0.197 |
| AGGTTAAA | 0.376 |
| ACACAGAC | 0.134 |
| CGAGGGCG | -0.162 |
| ATATATGG | 0.157 |
| ACCATATC | 0.00066 |
| CAGCTTGA | -0.117 |
| AGTCTAAG | 0.118 |
| AGTACATA | 0.077 |
| GCAGTTCC | -0.0983 |
| ATTCTCAA | 0.108 |
| CCTCGTCA | 0.0491 |
| ACTCAGTG | -0.169 |
| CCCTGTAA | 0.195 |
| CTAGTTGA | 0.0622 |
| AAAAAGCT | -0.0153 |
| CTCACTAC | 0.177 |
| AATTAGAG | -0.111 |
| GGCCGACC | 0.00035 |
| TATGCAAA | -0.0715 |

| Sequence | PBM E-score |
| --- | --- |
| AAATGCTA | -0.0918 |
| AGAATATA | -0.0634 |
| AACGGGCA | -0.0723 |
| AATGCATC | -0.124 |
| AGGGTAAT | 0.38 |
| ACGATTCA | -0.0795 |
| CGCTCCCC | -0.242 |
| TCCTCAAA | -0.00867 |
| AAGTCATA | 0.0794 |
| GATACTAA | 0.0612 |
| GATTGGAA | 0.0332 |
| AACCGGCG | 0.0905 |
| AGAGGGGA | -0.334 |
| GTCTCACA | 0.0106 |
| GCAACCGC | 0.214 |
| ATGGAAAG | 0.0699 |
| ACGCAAGA | -0.0414 |
| ACAGGTTG | 0.147 |
| CCGTTTCA | 0.0816 |
| CCACGCTA | -0.138 |
| CAGTGTCA | 0.0193 |
| CTCTACGA | -0.0991 |
| TACATAGA | -0.0363 |
| AGCCTCCG | -0.195 |
| GACCCATC | 0.0889 |

| Sequence | PBM E-score |
| --- | --- |
| GAAACACA | 0.105 |
| CAGCGACA | -0.0507 |
| CGCGGAAA | -0.0175 |
| CGCAGAAC | 0.0417 |
| CTGCTGCA | -0.135 |
| CATTTCGG | -0.0293 |
| ACGGATAA | -0.0719 |
| CCACTTCC | 0.13 |
| ATCAAGAC | 0.00604 |
| AGTTTGAC | 0.0941 |
| AGTCCTGG | -0.201 |
| AACTTTGA | 0.0223 |
| AGGAAAGA | -0.0817 |
| ACCCGTCG | 0.085 |
| AGCACTCG | -0.332 |
| CGCATCTC | -0.135 |
| CAAAGATG | -0.129 |
| TCCTCGCA | -0.194 |
| CCATCCTC | -0.232 |
| AATAGAGG | 0.0909 |
| CCGCCGAG | -0.0804 |
| ATCTTACG | -0.117 |
| AAGTTTGG | 0.0933 |
| CGACAACG | -0.187 |
| AACTGCGG | -0.0727 |

| Sequence | PBM E-score |
| --- | --- |
| ATTAACGA | 0.239 |
| GACAGACA | 0.219 |
| AACATGTC | 0.0904 |
| CTTTGCCA | -0.0626 |
| AGTTTATC | 0.145 |
| ATTGCGGC | -0.0608 |
| CTGGAGGC | 0.0587 |
| ATTATCTG | 0.0467 |
| ACCGCAAA | 0.205 |
| CCCGGGAA | -0.0842 |
| AATTCTTA | -0.119 |
| ATTCGGGA | -0.177 |
| CCATCGTA | -0.0384 |
| AGGTTAAC | 0.405 |
| CCGTAGCA | -0.235 |
| CATTGACG | -0.151 |
| GAACGAAA | -0.00047 |
| CCAGTGGG | -0.0925 |
| ATAGAGTC | -0.232 |
| ACCTTTGC | 0.247 |
| GGTACTTA | 0.202 |
| ACACGTCC | -0.257 |
| CCGTCCGA | -0.211 |
| AAGATCGC | -0.105 |
| CCGGGAAG | -0.0734 |

| Sequence | PBM E-score |
| --- | --- |
| AGAGTATG | -0.137 |
| CCAATTTC | -0.0198 |
| CGATACAG | -0.0104 |
| CAGTAGCC | -0.236 |
| AAATCGCT | -0.241 |
| ATGGACAG | -0.0773 |
| ATATCTCC | -0.149 |
| GTGAAGAA | -0.0109 |
| GTCGAGAA | -0.0294 |
| AGGTGCAA | 0.0924 |
| GGAAATCA | -0.172 |
| CCCCAAAG | 0.0964 |
| CAACGAAG | -0.103 |
| CTACCAAG | 0.0784 |
| AAGGCCAG | -0.0239 |
| AGCGTACT | -0.127 |
| ATATGTTG | -0.0991 |
| AGGGCGGG | 0.135 |
| AGACCAAT | 0.0466 |
| TACTTGAA | 0.0507 |
| GCAGTACA | -0.103 |
| GGATTACA | -0.00429 |
| CGAGAATA | 0.00254 |
| ACACACAC | 0.117 |
| GAAGGGGC | -0.241 |

| Sequence | PBM E-score |
| --- | --- |
| TGAGAACA | 0.0166 |
| AGTGATAT | 0.0147 |
| CATCTTGG | -0.173 |
| CATCGGCA | -0.172 |
| CGAAGTAC | -0.0344 |
| ATCCGCTC | -0.265 |
| ATCGCCAT | -0.132 |
| AAACGCGA | -0.00668 |
| GTCGCGTA | 0.0817 |
| ACTTATAG | -0.136 |
| AAGCGAGT | 0.0526 |
| ATTAAAAG | 0.186 |
| ATAAAGAC | 0.133 |
| ACCCCCAC | -0.286 |
| TAAGGGGA | 0.00031 |
| ATAACAAT | 0.0875 |
| ATCATCGG | -0.0345 |
| AGCGTCAA | -0.129 |
| GCGCGTTA | 0.1 |
| AGAGTCAT | -0.0584 |
| ATTGACGC | -0.0257 |
| ACTTCGAA | 0.0192 |
| GGGCGCAC | -0.275 |
| CTCCCTAC | -0.161 |
| CAGTATCC | -0.0554 |

| Sequence | PBM E-score |
| --- | --- |
| GAACCGAC | -0.0415 |
| CGGATAAC | 0.211 |
| CGTGGTCA | 0.195 |
| ACTCTGGC | -0.231 |
| AATATTAC | 0.166 |
| ATAAAATG | 0.232 |
| ATATCGCA | -0.0843 |
| AAGGACCA | 0.0345 |
| AGCGGGAT | -0.167 |
| ATTTCATG | -0.119 |
| GATATGGC | -0.378 |
| CTGTTGGA | 0.0611 |
| AGACAGAA | -0.146 |
| CCGGGAGG | -0.0571 |
| CAGAAGGC | -0.263 |
| CGAAATGA | 0.0466 |
| ATTGAGTA | 0.205 |
| GGAGACTA | -0.0722 |
| ACAGATGG | -0.16 |
| ATGGTCGA | -0.122 |
| AGGATGAC | -0.215 |
| ACACGTGT | -0.162 |
